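96-well plates; 48 h exposure; 5 concentrations. Endpoints by linear interpolation between flanking doses. Not reached: highest tested concentration assigned. At the GI50, growth is halved.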 Activity calls are given as the source filed them. Rule as the data show it: active = GI50 up to about 1.1 µM and inactive = higher. Peptide text beside a SMILES is read from it.
System: NCI-H322M
Assay: NCI anticancer screen, dose series, 48 h

| Compound | GI50 |
| --- | --- |
| COc1cc2oc3ccccc3c(=O)c2cc1CSc1ccccc1N | inactive: 30.9 µM |
| O=C(O)c1cc(O)nc(SCc2ccccc2)n1 | inactive: > 100 µM |
| Cc1cc(C)nc(NS(=O)(=O)c2ccc(NNC(=O)c3cccc4c(NNc5ccc(S(=O)(=O)Nc6nc(C)cc(C)n6)cc5)c5ccccc5nc34)cc2)n1 | inactive: 23 µM |
| CC1(C)N=C(C2CCCN2C(=O)OCc2ccccc2)OC1=O (stereo not given) | inactive: > 100 µM |
| CCCCCOC(=O)C(=O)Nc1[nH]nnc1C(N)=O | inactive: > 100 µM |
| O=C(O)C1C(C(=O)O)C2C(=O)C=CC1N2Cc1ccccc1 (stereo not given) | inactive: 11.5 µM |
| Oc1ccc(Nc2nc(Cl)c3nc[nH]c3n2)cc1 | inactive: > 100 µM |
| CCOC(=O)c1c(NS(=O)(=O)c2ccc(Br)cc2)sc2c1CCCC2 | inactive: 7.78 µM |
| COc1cc([C@@H]2c3cc4c(cc3[C@@H](NC(=O)c3ccc([N+](=O)[O-])cc3)C3COC(=O)[C@@H]32)OCO4)cc(OC)c1O (stereo not given in full) | inactive: 3.88 µM |
| COC(=O)CCC(=O)CC(=O)C(=O)Nc1c(Cl)cc([N+](=O)[O-])cc1Cl | inactive: > 100 µM |
| COC1C(OC(N)=O)C(O)C(Oc2ccc3c(O)c(NC(=O)c4ccc(O)c(CC=C(C)C)c4)c(=O)oc3c2C)OC1(C)C (stereo not given) | inactive: > 100 µM |
| COC1CC(OC)C2OC(c3ccccc3)OCC2O1 (stereo not given) | inactive: > 100 µM |
| O=[N+]([O-])C(=C(Nc1ccccc1)Nc1ccccc1)C(Cl)=C(Cl)Cl | inactive: 21 µM |
| COC(=O)[C@H](COC(=O)/C=C/c1ccc(OC(C)=O)c(OC(C)=O)c1)NC(=O)/C=C/c1ccc(OC(C)=O)c(OC(C)=O)c1 | inactive: 18.5 µM |
| CC1C(=O)OC2CC[N+]3(CC(=O)c4ccc(Br)cc4)CC=C(COC(=O)C(C)(O)C1(C)O)C23 (stereo not given) | inactive: > 375 µM |
| COc1ccc(-c2nc3ccc([N+](=O)[O-])cc3c(=O)[nH]2)cc1 | inactive: > 100 µM |
| COC(=O)C(=O)C(C(=O)C(=O)Nc1ccccc1C(N)=O)c1nc2ccc(Cl)cc2nc1O (stereo not given) | inactive: > 100 µM |
| COc1ccc(-n2c(C)nc3ccc(NC(=S)Nc4ccccc4)cc3c2=O)cc1 | inactive: > 100 µM |
| O=C(N=C1N(c2ccccc2)C(=O)C(=O)N1c1ccccc1)c1ccccc1 | inactive: 15.7 µM |
| O=[N+]([O-])c1ccc(C[S+]([O-])Cc2ccccc2)cc1 (stereo not given) | inactive: > 100 µM |
| NC(=O)C1CCCN1C(=O)C(N)Cc1ccccc1 (stereo not drawn) (H-Phe-Pro-NH2; configuration not given here) | inactive: > 100 µM |
| COc1cc2c(cc1OC)-c1c3cc(O)ccc3nn[n+]1CC2 | inactive: > 100 µM |
| COc1cc2c[n+](C)c3c4cc(OC)c(OC)cc4c(OC)cc3c2cc1OC | inactive: 11.1 µM |

| Compound | GI50 |
| --- | --- |
| CN(CCO)Cc1ncccc1O | inactive: > 100 µM |
| COCO[C@@H]1C[C@H]2C(O)Nc3ccccc3C(=O)N2C1 (stereo not given in full) | inactive: > 100 µM |
| Cc1cc(NS(=O)(=O)c2ccc(/N=N/c3c(O)c(C(=O)O)cc4ccccc34)cc2)nc(C)n1 | inactive: > 100 µM |
| O=C1C=CC(CC(=O)c2ccc3ccccc3c2)O1 (stereo not given) | inactive: 17.7 µM |
| CCCCn1cc(C(=O)O)c(=O)c2c3sccc3ccc21 | inactive: > 100 µM |
| COc1ccc(C(CC(=O)c2ccc(O)cc2)C(C(=O)c2ccc(O)cc2)C(c2ccc(OC)cc2)C2C(=O)NC(=S)NC2=O)cc1 (stereo not given) | inactive: 20.3 µM |
| NC(=O)C1=C(c2ccccc2)c2ccccc2C1=O | inactive: 23 µM |
| CC(C)(C)OC(=O)N1CCC[C@H]1CSC[C@@H]1CCCN1C(=O)OC(C)(C)C | inactive: 67.9 µM |
| O=C(Nc1ccc(Cl)cc1Cl)c1cc2nc3ccccc3c(=O)n2c2ccccc12 | inactive: > 10 µM |
| CC(CN(C)C)C(C#N)(c1ccccc1)c1ccccc1 (stereo not given) | inactive: > 100 µM |
| CC(C)(C)c1cc(CCC(=O)Nc2ccc(Cl)cc2Cl)nc(N)n1 | inactive: > 100 µM |
| COc1cc(C(C#N)NNc2nc(C)cc(O)n2)cc(OC)c1OC (stereo not given) | inactive: > 100 µM |
| CCOC(=O)/C=C/n1c2ccccc2c(=O)c2cc(OC)ccc21 | inactive: > 100 µM |
| O=c1[nH]nc(-c2ccccc2)n1/N=C/c1cccs1 | inactive: > 100 µM |
| CC1(c2cccc(C3CC4(CCC3=O)OCCCCO4)c2)OCCO1 (stereo not given) | inactive: > 100 µM |
| NCCN1C(=O)c2ccccc2C1(O)c1ccc(Cl)cc1 (stereo not given) | inactive: 22.9 µM |
| O=C1C(SCCO)=C(SCCO)C(=O)c2ccccc21 | inactive: 1.63 µM |
| CNC(=S)N/N=C(\C(=N/NC(=S)NC)c1ccccn1)c1ccccn1 | inactive: 2.61 µM |
| C=C(C(=O)OC)[C@H]1CC/C(C)=C/CC/C(C)=C/CC[C@@]2(C)O[C@@H]2C1 | inactive: 24.5 µM |
| CC(C)OP(=O)(OC(C)C)c1nn(-c2ccc([N+](=O)[O-])cc2)c(=N)s1 | inactive: > 100 µM |
| CC1(C)C=CC(=O)C(O)C(C)(C)C1=O (stereo not given) | inactive: > 100 µM |
| C(=N\NC1=NCCCN1)/c1ccc(-c2cn3cc(/C=N/NC4=NCCCN4)ccc3n2)cc1 | inactive: > 100 µM |
| COc1c(I)c(OC)c2c(c1I)O[C@@H]1OCC[C@H]21 | inactive: 74.6 µM |

| Compound | GI50 |
| --- | --- |
| C/C=C(\CCOS(=O)(=O)c1ccc(C)cc1)[Si](C)(C)C | inactive: > 100 µM |
| O=C1CCCC1CN1CCCC1 (stereo not given) | inactive: > 100 µM |
| CCCCCCCCCCCCCC(=O)OC1C(CO)OC(=O)C1O (stereo not given) | inactive: > 100 µM |
| NCCCCC(N)C(=O)NCCNc1ccc(NCCNC(=O)C(N)CCCCN)c2c1C(=O)c1ccccc1C2=O (stereo not given) | inactive: 21.2 µM |
| NN(CC(=O)O)CC(=O)O | inactive: > 100 µM |
| O=C(O)CN(c1ccccc1)S(=O)(=O)c1cccc([N+](=O)[O-])c1 | inactive: > 100 µM |
| O=C1NC(=O)C2C(=O)NC(=O)C1C2(c1ccccc1)c1cc[nH]c1 (stereo not given) | inactive: > 100 µM |
| N#C/C1=C(\N)CCSSSC1 | inactive: 54.8 µM |
| CN(C)c1ccc(C2CC(=O)C(C#N)=C(c3ccccc3)NN2C)cc1 (stereo not given) | inactive: 6.56 µM |
| COc1cc(CC2CCc3nc(N)nc(N)c3C2)cc(OC)c1OC (stereo not given) | active: 0.537 µM |
| N#CCCN(CCC#N)c1ccc(/C=C2\N=C(c3ccccc3)N(c3ccc(C(=O)O)cc3)C2=O)cc1 | inactive: 38.5 µM |
| O=C(COc1ccc(Br)cc1Br)N1N=C(c2ccc([N+](=O)[O-])o2)CC1(O)c1ccccc1 (stereo not given) | inactive: 14.2 µM |
| COc1cc(=O)oc(/C=C/CO)c1C | inactive: > 100 µM |
| CN(C)CCC(C#N)(c1ccccc1)c1ccccc1 | inactive: > 100 µM |
| CC(=O)OC1(C)CC(C)C(=O)C(C(O)CC2CC(=O)NC(=O)C2)C1 (stereo not given) | active: 0.0128 µM |
| NCCCN(CCCN(C(=O)Nc1ccccc1)c1ccccc1)C(=O)Nc1ccccc1 | inactive: 31.1 µM |
| CCN(CC)c1ccc(C2SCC(=O)N2c2ccc(NC(=O)c3ccc(N4C(=O)CSC4c4ccc(N(CC)CC)cc4)cc3)cc2)cc1 (stereo not given) | inactive: > 100 µM |
| Cc1cc(C)nc(SCC(=O)OC2CC(C)CCC2C(C)C)n1 (stereo not given) | inactive: 24 µM |
| c1ccc2c(c1)N[C@@H]1c3[nH]c4ccccc4c3CC[C@H]21 | inactive: 14.8 µM |
| O=C(NNC(=S)NCc1ccccc1)c1csc(NC(=S)NC2CCCCC2)n1 | inactive: 39.6 µM |
| C=C1[C@@H](C)[C@H]2[C@H](Cc3ccccc3)NC(=O)[C@]23OC(=O)/C=C/[C@H](O)CCC[C@@H](C)C/C=C/[C@H]3[C@@H]1O | inactive: 29.4 µM |
| CCOP(=O)(CN1CCNCCN(CP(=O)(OCC)OCC)CC1)OCC | inactive: > 100 µM |
| CC1=C(C(=O)Nc2c(C)cccc2C)C(c2ccccc2Cl)C(C(=O)Nc2c(C)cccc2C)=C(C)N1 | inactive: > 100 µM |

| Compound | GI50 |
| --- | --- |
| CC(C)(C=O)CC(C#N)/C(=N\NC(N)=O)C(=O)Nc1ccccc1C(N)=O (stereo not given) | inactive: > 100 µM |
| COc1ccc(C2SCC(=O)N2c2ccc(-n3c(-c4ccccc4)nc4ccccc4c3=O)cc2)cc1OC (stereo not given) | inactive: > 100 µM |
| CN(C)C(=S)NC(=S)Nc1ccc2ccccc2c1 | inactive: 12.7 µM |
| NNC(=S)N/N=C(\C(=O)Nc1cccc(O)c1)C1C(=O)NC(=S)NC1=O | inactive: > 100 µM |
| Cc1ccc(-c2c(N)nc(NC#N)nc2CCC(=O)Nc2ccccc2[N+](=O)[O-])cc1 | inactive: > 100 µM |
| COC(=O)OCC1OC(N2C(=O)NC(=O)C(Br)C2N=[N+]=[N-])CC1OC(=O)OC (stereo not given) | inactive: > 100 µM |
| COc1cc(/C=C2/C(=O)N/C(=N\C(C)=O)N2C)ccc1OC(C)=O | inactive: > 100 µM |
| O=C1c2ccccc2C(=O)c2sc(Nc3cccc(Cl)c3)nc21 | inactive: 2.25 µM |
| Cc1ccc2c(c1)C(=O)C1(C2)Cc2ccc(C)cc2C1=O | inactive: > 100 µM |
| O=C1c2c(O)cccc2C(C(=O)CCCCCC(=O)C2c3cccc(O)c3C(=O)c3c(O)cccc32)c2cccc(O)c21 | inactive: 5.07 µM |
| COC1(OC)C=CC2C1C1C=CC2C1(OC)OC (stereo not given) | inactive: > 100 µM |
| CC1(C)[C@H]2Cc3cc(-c4cc5c(cn4)[C@@H]4C[C@H]([C@@H]5[C@@H]5c6cc(-c7cc8c(cn7)[C@@H]7C[C@H](C8)C7(C)C)ncc6[C@@H]6C[C@H]5C6(C)C)C4(C)C)ncc3[C@@H]1C2 | inactive: > 100 µM |
| COC(=O)c1cc2c3c(c1)Oc1cc(C(=O)OC)cc4c1C3c1c(cc(C(=O)OC)cc1O4)O2 | inactive: 58.5 µM |
| O=C(NNC(=O)c1ccncc1)C(=O)Nc1cc(Cl)c(Cl)cc1Cl | inactive: > 100 µM |
| COc1ccc(C2c3cc(OC)c(OC)cc3C(Cc3ccc([N+](=O)[O-])cc3)C2c2ccc([N+](=O)[O-])cc2)cc1OC (stereo not given) | inactive: > 100 µM |
| C#CCSc1nc(-c2ccco2)n[nH]1 | inactive: > 100 µM |
| O=[PH](O)c1cc2ccccc2c2ccccc12 | inactive: > 100 µM |
| C/C(CC(O)(C(F)(F)F)C(F)(F)F)=N/Nc1ccc([N+](=O)[O-])cc1[N+](=O)[O-] | inactive: 3.22 µM |
| COc1ccc2c(c1)OCCCN(C)OC2c1ccccc1 (stereo not given) | inactive: > 100 µM |
| Cc1c(C)c(S(=O)(=O)N(CCCCCCN)OCCCN)c(C)c2c1OC(C)(C)CC2 | inactive: 6.7 µM |
| CCOC(=O)CNc1nc(=O)c2c(=O)oc(Cl)cc2o1 | inactive: 27 µM |

From ChEMBL document CHEMBL1201862, “PubChem BioAssay data set” (2004)
